Data: PubChem BioAssay (Tox21)
Several values for one entry are separate records, joined by “and”; a condition that tells them apart may be missing. Equal values may be shown once. This list was built around the results that the source calls inconclusive (neither active nor inactive); the mix of calls is not that of the screen. Potencies of inconclusive entries are left out as doubtful fits. A structure can be active in one record and inactive in another. Activity calls are given as the source filed them. The call rests on the fitted dose curve; in most records, active means well fitted inhibition curve with a large enough effect in the signal ratio in the repeat runs (not every such curve was filed as active); inconclusive means weak or mixed curves; inactive means flat fitted curve, though single readings scatter; the % refers to the signal ratio.

Molecular target: Progesterone receptor (Homo sapiens) (UniProt P06401)
Sequence of UniProt P06401 (P06401 whole entry, looked up): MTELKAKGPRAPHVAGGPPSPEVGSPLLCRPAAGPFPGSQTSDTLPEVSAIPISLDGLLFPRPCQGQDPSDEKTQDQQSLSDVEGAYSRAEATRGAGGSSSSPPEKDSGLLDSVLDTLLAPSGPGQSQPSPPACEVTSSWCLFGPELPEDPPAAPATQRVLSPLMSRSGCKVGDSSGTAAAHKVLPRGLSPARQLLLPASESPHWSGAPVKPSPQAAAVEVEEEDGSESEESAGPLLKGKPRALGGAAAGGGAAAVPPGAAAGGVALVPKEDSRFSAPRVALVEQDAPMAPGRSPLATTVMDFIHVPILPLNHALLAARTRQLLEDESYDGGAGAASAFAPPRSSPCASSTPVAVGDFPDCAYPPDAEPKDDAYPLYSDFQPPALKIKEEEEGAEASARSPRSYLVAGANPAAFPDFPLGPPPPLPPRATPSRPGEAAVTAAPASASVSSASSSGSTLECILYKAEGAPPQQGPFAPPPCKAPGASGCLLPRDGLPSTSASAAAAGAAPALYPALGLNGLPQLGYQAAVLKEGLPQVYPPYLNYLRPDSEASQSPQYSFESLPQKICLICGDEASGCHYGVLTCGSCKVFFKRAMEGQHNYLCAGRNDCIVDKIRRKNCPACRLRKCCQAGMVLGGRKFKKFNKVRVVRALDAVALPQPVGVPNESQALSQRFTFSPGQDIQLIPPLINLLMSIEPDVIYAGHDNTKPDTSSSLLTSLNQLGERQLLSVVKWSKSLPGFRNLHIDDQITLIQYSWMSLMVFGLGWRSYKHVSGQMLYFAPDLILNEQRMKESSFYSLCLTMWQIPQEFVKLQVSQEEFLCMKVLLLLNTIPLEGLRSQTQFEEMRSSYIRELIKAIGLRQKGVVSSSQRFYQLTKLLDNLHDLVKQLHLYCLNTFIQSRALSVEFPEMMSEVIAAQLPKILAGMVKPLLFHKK
Assay: qHTS assay to identify small molecule antagonists of the progesterone receptor (PR) signaling pathway (AID 1346795)
Conditions: PR-UAS-bla HEK293T, beta-lactamase FRET ratio, 16 h; activity change, negative = inhibition: at 92.4 µM (top of the series) unless noted
Procedure, shortened: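 In HEK293T cells bearing the PR-UAS-bla reporter, compound effects on promegestone-driven (1 nM) beta-lactamase expression are assessed after 16 hr using a fluorescent FRET substrate incubated 2 hr at room temperature.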
On the % scale 0 is the no-effect control and ±100 the full control effect; potency means the concentration at half of the fitted maximal effect; tags describe the fitted curve by direction and shape.

With `C[C@@H](O)[C@H]1C(=O)N2C(C(=O)O)=C([C@H]3CCCO3)S[C@H]12` as the compound, how does the Potency read?
The Potency was inconclusive [rising, partial curve, poor fit].

How did the “activity change, negative = inhibition” value turn out when `C[CH2][Ge]([Cl])([CH2]C)[CH2]C` was run?
Its value is inactive: 0.16%.

`C[C@H]1c2cccc(O)c2C(O)=C2C(=O)[C@]3(O)C(O)=C(C(N)=O)C(=O)[C@@H](N(C)C)[C@@H]3[C@@H](O)[C@@H]21` was tested. Which Potency did it give?
Its Potency is inconclusive.

With `CN(CCOc1ccc(CC2SC(=O)NC2=O)cc1)c1ccccn1` (centres undefined) as the compound, how does the Potency read?
Its Potency is active: 48.3 µM and inactive.

`CC(C)CC(=O)OCc1ccccc1` was tested. Which activity change, negative = inhibition did it give?
Its activity change, negative = inhibition is inconclusive: 0.351%.

`COc1ccc(CCO)cc1` was tested. Which “activity change, negative = inhibition” value did it give?
The value was inactive: 4.48%.

`O=S(=O)(Cl)c1c(Cl)cccc1Cl` was tested. Which “activity change, negative = inhibition” value did it give?
The value was inactive: 0.45%.

How did the Potency turn out when `Brc1c2ccccc2cc2ccccc12` was run?
Its Potency is inconclusive [partial curve, poor fit].

Which Potency does the source give for `O=C(c1ccc(O)cc1)c1ccc(Cl)cc1` here?
The Potency was inconclusive [rising, full curve].

With `COC(=O)c1ccccc1O` as the compound, how does the activity change, negative = inhibition read?
Its activity change, negative = inhibition is inconclusive: -36.3% and inconclusive: 11.3%.

For `N#Cc1cc(NC(=O)C(=O)O)c(Cl)c(NC(=O)C(=O)O)c1`, which “activity change, negative = inhibition” value is on record?
The value was inactive: 9.44% [at 42.5 µM].

For `CC1=C(/C=C/C(C)=C\C=C\C(C)=C\C(=O)O)C(C)(C)CCC1`, which Potency is on record?
Its Potency is inconclusive [falling, partial curve].

For `CCCCC(CC)COCCCN` (centres undefined), which Potency is on record?
Its Potency is inconclusive [falling, single point].

With `O=C(Nc1ccccc1)c1ccccc1O` as the compound, how does the Potency read?
Its Potency is inconclusive [falling, partial curve].
